Molecules are shown by their SMILES. Out of some 150,000 compounds screened, about 540 (0.36%) showed an effect of 50% or more. The list shows a part of the results.

For this assay, the system named is Plasmodium falciparum. As to the kind of experiment: Primary screen in NF54 nanoGlo assay, in single point, at 2uM, 72h; a lower Z score goes with more inhibition. The following applies: timepoint 72 hour. It counts as functional, Erythrocyte.
With `O=C(NC[C@H](O)COc1ccc(F)cc1)C1=CCCCCC1`, the “% Inhibition” value is listed as -9% and the Z score came out at 0.81.
With `CC(C)n1cc(Br)cc1C(=O)O`, the “% Inhibition” value is recorded as -6% and the Z score amounted to 0.87.
The matching figures for `O=C([C@H]1C[C@@H]1c1ccc(F)cc1F)N1CC(n2cncn2)C1`: -2% and 0.22.
Consider `c1ccc(Cc2nnc3n2CCN(CCOc2ccccn2)C3)cc1`, for which the “% Inhibition” value was -8% and the Z score came to 0.91.
In the case of `Cn1nc(C(=O)N2CCC(O)(C3CCC3)CC2)c2ccccc2c1=O`, the “% Inhibition” value came out at 6% and the Z score is recorded as -1.
`CCc1c[nH]c2ncnc(N3CC(CO)(c4ccccc4)C3)c12`: the “% Inhibition” value is -1% and the Z score is 0.15.
The like results for `COc1cc(C(=O)N[C@@H](c2ccccc2)c2ccc(Cl)cc2)ccc1OCC(=O)N1CCOCC1` were, in that order, -3% and 0.44.
For `Cc1ccc2c(=O)c(-c3nc(-c4ccc(F)cc4)no3)cn(CC(=O)Nc3ccccc3F)c2n1`, the “% Inhibition” value was -13% and the Z score stood at 1.17.
`Cc1nnc(N2C[C@H](C)OC(C)(C)C2)c(C#N)c1C`: the “% Inhibition” value is recorded as -11% and the Z score is 1.42.
`O=C(N[C@@H]1CC[C@@H](C(F)(F)F)N(Cc2cocn2)C1)C(F)(F)F`: the “% Inhibition” value is recorded as -8% and the Z score was 1.12.
For the compound `O=C(C1CC1(F)c1ccccc1)N1CCC1` (configuration not stated), the “% Inhibition” value worked out at 3% and the Z score is -0.28.
On to `C[C@@H](CN1CC2(CCN(Cc3cc(=O)n4ncnc4[nH]3)CC2)OC1=O)c1ccccc1`, for which the “% Inhibition” value is reported as -12% and the Z score turned out to be 1.31.
Take `Cc1ccc(C(=O)N2CCN(c3nc(C4CC4)nc4c3cnn4-c3ccccc3)CC2)cc1`: the “% Inhibition” value was -15% and the Z score turned out to be 1.59.
Regarding `CC1CN(CC2CCN(C(=O)CC3CN(C(=O)OC(C)(C)C)C3)CC2)CC(C)O1` (configuration not stated), the “% Inhibition” value was -14% and the Z score is 1.77.
On to `Cc1nccc(NC(=O)c2cnc3c(cnn3[C@@H](C)C3CC3)c2)n1`, for which the “% Inhibition” value is on record as -1% and the Z score came to 0.17.
Turning to `COc1ccc(-c2ccnn3c(N)nc(-c4ccccc4)c23)cc1`, the “% Inhibition” value was -14% and the Z score came to 1.79.
As for `CCCCOc1ccc(C(=O)Nc2ccncc2NC(=O)c2ccc(OCCCC)cc2)cc1`, the “% Inhibition” value is reported as -7% and the Z score was 1.22.
Turning to `Cc1csc([C@@H]2CCCN2C(=O)c2cc3cnccc3[nH]2)n1`, the “% Inhibition” value came to 12% and the Z score is reported as -1.35.
Regarding `CCC(CC)(CCO)CN[C@H]1CCc2c(cccc2OC)C1`, the “% Inhibition” value is reported as -5% and the Z score is recorded as 1.02.
The matching figures for `CCc1ncnc(NCC2(S(N)(=O)=O)CCC2)c1F`: -9% and 1.54.
As for `CC[C@@H](COC)n1cnc(-c2ccccc2)c1-c1cc(C)n[nH]1`, the “% Inhibition” value is reported as -4% and the Z score turned out to be 0.71.
As to `Cc1ccc(C(=O)N2CCN(c3nc4cc(C)c(C)cc4nc3C(F)(F)F)CC2)cc1`, the “% Inhibition” value is on record as -4% and the Z score worked out at 0.81.
`CC(C)c1nc(CNc2cnccn2)c[nH]1`: the “% Inhibition” value was -20% and the Z score is 2.18.
The like results for `COCCO[C@H]1CN(C2CCN(C(=O)Nc3ccccc3F)CC2)C12CCCCC2` were, in that order, -3% and 0.49.
The like results for `Cc1cc(CN(c2ccc(Cl)cc2F)S(C)(=O)=O)nc(C)n1` were, in that order, -4% and 0.39.
With `CN(CC#N)Cc1cc(F)cc(Br)c1`, the “% Inhibition” value is recorded as -9% and the Z score was 1.38.
The like results for `Brc1ccc(N=C2CCCCCCN2)cc1` were, in that order, 2% and -0.22.
The like results for `Cc1cc2c(NC(=O)N3CCC(Cc4noc(C)n4)CC3)cccc2nn1` were, in that order, -8% and 0.83.
As for `Cc1nc(-c2cc(S(=O)(=O)N3CCC[C@H](C(=O)N4CCc5ccccc5C4)C3)c(C)s2)no1`, the “% Inhibition” value is reported as -9% and the Z score worked out at 0.89.
The like results for `CCc1ccnc(C(=O)Nc2cc(C(=O)OC)nn2C)c1` were, in that order, -8% and 0.95.
As to `Cc1nn(C)c(C)c1CC(=O)NC(C1CC1)C1CC1`, the “% Inhibition” value was 3% and the Z score is recorded as -0.42.
As for `CC[C@@H](CO)N1CCN(C(=O)CCc2ccc(C)s2)CC1`, the “% Inhibition” value is on record as -17% and the Z score is reported as 2.23.
Regarding `CCCc1cc(C(=O)N[C@@H]2C[C@H]3OCC[C@@H]23)no1`, the “% Inhibition” value is reported as -9% and the Z score was 1.01.
As to `CC(C)COC(=O)N1CCC2(CCN(Cc3cccc(C#N)c3)CC2)CC1`, the “% Inhibition” value was determined as 0% and the Z score is recorded as 0.04.
For the compound `COc1ccc(CNC(=O)c2ccc(N3C(=O)[C@@H]4Cc5c([nH]c6ccccc56)C(c5cccc(OC)c5)N4C3=O)cc2)cc1` (some centres not stated), the “% Inhibition” value is reported as 49% and the Z score is given as -7.23.
With `Cc1ccc2c(Cc3nnn[nH]3)cn(C)c2c1`, the “% Inhibition” value is recorded as 5% and the Z score is reported as -0.97.
On to `O=C(O)[C@H]1CCCN1C(=O)c1cc2cccc(Cl)c2o1`, for which the “% Inhibition” value is -16% and the Z score was 1.38.
`COc1cc(NC(=O)N(C)CC[C@H]2CCCCO2)cc(-n2cnnn2)c1`: the “% Inhibition” value is -4% and the Z score was found to be 0.69.
The like results for `CN(Cc1ccccc1)C(=O)Cn1c(=O)[nH]c2c(-c3ccccc3F)c[nH]c2c1=O` were, in that order, -5% and 0.82.
For `CC(C)(C)C(=O)NC[C@H]1CCCC1(F)F`, the “% Inhibition” value is listed as -8% and the Z score was 1.66.
As for `Cc1ccnc(Oc2cc(N[C@@H](C)c3nnc(C)o3)ccc2C)c1`, the “% Inhibition” value is listed as -10% and the Z score was 1.83.
The like results for `CC(NC1CCN(CC(F)(F)F)C1)c1cccc(-n2cccn2)c1` (configuration not stated) were, in that order, 1% and -0.15.
Take `NC1(c2noc(-c3ccc(Cl)c(C(F)(F)F)c3)n2)CCC1`: the “% Inhibition” value is given as 6% and the Z score is recorded as -0.79.
Take `CCN(Cc1ccncc1)CC1CCN(c2ccccn2)CC1`: the “% Inhibition” value is -12% and the Z score is 1.55.
For `O=C(Cc1nnc(-c2ccccc2)o1)NCc1cccnc1`, the “% Inhibition” value is 1% and the Z score was -0.18.
On to `c1cnc(N2CCOC3CCCCC32)cn1` (configuration not stated), for which the “% Inhibition” value was -6% and the Z score came out at 0.92.
For `CC(C)c1nc2n(n1)CCCC2NC(C)c1cccc(O)c1` (configuration not stated), the “% Inhibition” value was 7% and the Z score is -0.87.
On to `Cc1noc(C2CN(CCCc3ccccc3)C2)n1`, for which the “% Inhibition” value is reported as -7% and the Z score worked out at 1.37.
The matching figures for `O=C(Nc1ccccc1N1CCCC1)c1ccc2[nH]c3c(c2c1)CCCC3`: -1% and 0.21.
Regarding `Cc1c2c(nc3c(C(=O)NC4CCCCC4C)cnn13)CCCC2` (configuration not stated), the “% Inhibition” value is recorded as -12% and the Z score came to 1.57.
For `C[C@@]1(C(=O)NCc2cccs2)CCCCC(=O)N1`, the “% Inhibition” value is recorded as 3% and the Z score was -0.4.
Regarding `CC(=O)N1CC(OCC(=O)N(C)c2ccccc2Oc2ccccc2)C1`, the “% Inhibition” value is recorded as -13% and the Z score amounted to 2.36.
In the case of `C[C@H]1CCOCCN1C(=O)c1ccc(-n2cc[nH]c2=O)cc1`, the “% Inhibition” value was -3% and the Z score is 0.62.
The matching figures for `CC(C)CC(=O)N(Cc1ccccc1)[C@H]1CCS(=O)(=O)C1`: 1% and -0.08.
The like results for `C=CCC1(O)CN(C(=O)CCCOCC)C1` were, in that order, 2% and -0.34.
For the compound `Cc1ccc(C)c(CC(=O)N2C[C@@H](CN3CCCN(C)CC3)[C@@H](CO)C2)c1`, the “% Inhibition” value worked out at 4% and the Z score is given as -0.49.
The matching figures for `Cc1cc([C@@H](NC(=O)CN2CCCCC2=O)C2CC2)ccc1F`: 3% and -0.35.
In the case of `CCC(NC(=O)N1CCCC1Cn1ccnc1)c1c(C)noc1C` (configuration not stated), the “% Inhibition” value was found to be 5% and the Z score is listed as -0.72.
Regarding `CCN1CCN(C(=O)COCc2nnc(C(=O)Nc3cccc(Cl)c3)s2)CC1`, the “% Inhibition” value is reported as -11% and the Z score is listed as 1.58.
The like results for `Cc1ccsc1CNC(=O)c1ccc(OCc2ccccc2)cc1` were, in that order, -2% and 0.43.
On to `CCn1ccc(C(=O)N2Cc3ncccc3N3CCC[C@H]3C2)n1`, for which the “% Inhibition” value was -1% and the Z score is listed as 0.17.
The matching figures for `O=C(CCc1nc2ccccc2c(=O)[nH]1)N1CCOC2CCCCC21` (configuration not stated): -5% and 0.75.
The matching figures for `C#CCN1CCN(C(=O)CN(CCC)CC(F)F)CC1`: 1% and -0.05.
The matching figures for `CCN1C(=O)[C@](C)(C(=O)Nc2ccc(F)cc2F)Oc2cccnc21`: -8% and 1.44.
On to `COCC(=O)NC1C2CCCN(c3cc(C(C)(C)C)nc(C(C)C)n3)C2C1(C)C` (configuration not stated), for which the “% Inhibition” value is -9% and the Z score came to 1.17.
Take `CN1CCN([C@H]2CN(C(=O)c3cccc(N(C)C)c3)C[C@@H]2O)CC1`: the “% Inhibition” value is reported as -4% and the Z score came out at 0.51.
For the compound `CC(C)[C@@](C)(O)CNS(=O)(=O)C1CC1`, the “% Inhibition” value is -11% and the Z score is given as 1.56.
For `CNc1cc(C(=O)N[C@H]2COC[C@@H]2OC)ccn1`, the “% Inhibition” value is -14% and the Z score is recorded as 2.07.
As to `O=C(c1ccccc1OC(F)F)N1CCN(Cc2ccc[nH]2)CC1`, the “% Inhibition” value is listed as -2% and the Z score worked out at 0.22.
In the case of `CN1CCN(Cc2ccc3c(c2)CCO3)C[C@@H]1CCO`, the “% Inhibition” value is listed as -2% and the Z score was 0.22.
The like results for `O=C(NCC1(C2CC2)CC1)N1CCOCC1CC(O)c1ccco1` (configuration not stated) were, in that order, -8% and 1.13.
The like results for `CCOc1ncccc1C(=O)N(C1CCCC1)[C@H]1CCS(=O)(=O)C1` were, in that order, 2% and -0.19.
The matching figures for `CC(C)[C@H]1C(=O)NCCN1S(=O)(=O)c1ccnn1C`: -8% and 1.55.
As for `Cc1nccn1-c1cc(CNC(=O)Cc2cc(Cl)c3c(c2)OCCCO3)ccn1`, the “% Inhibition” value was -4% and the Z score is on record as 0.58.
With `CCN(CC)C(=O)C1=CC(c2ccco2)=NS(=O)(=O)N1C`, the “% Inhibition” value is given as -14% and the Z score is recorded as 2.61.
As to `O=C1c2cc(Cl)c(Cl)cc2C(=O)N1Cc1nc2ccccc2s1`, the “% Inhibition” value was -5% and the Z score is reported as 0.87.
As for `C=CCCC(=O)NCCn1cc(C(=O)Nc2cccc(OC)c2)nn1`, the “% Inhibition” value is -9% and the Z score stood at 1.1.
As for `Cc1nn(C)c(C)c1CCN(C)C(=O)Nc1ccc2c(c1)OCO2`, the “% Inhibition” value is given as -15% and the Z score was found to be 1.46.
As to `CCC1CC(C)CN1C(=O)C(C)Cc1c(C)n[nH]c1C` (configuration not stated), the “% Inhibition” value is -5% and the Z score came to 0.65.
As for `CC(NC1CCN(C)C1=O)c1nc2ccccc2n1C(C)C` (configuration not stated), the “% Inhibition” value stood at 2% and the Z score is recorded as -0.27.
In the case of `CC(C)(C)CN1CCCC(N2CC3CCCC3C2C(N)=O)C1=O` (configuration not stated), the “% Inhibition” value is listed as -11% and the Z score worked out at 1.42.
As to `CN(C)CCNC(=O)[C@H]1CCCN(C(=O)c2nnc(C(=O)Nc3ccccc3)s2)C1`, the “% Inhibition” value was -24% and the Z score is listed as 2.11.
As to `CC(C)[C@H](N)C(=O)NCc1nc(Cn2cnc3ccccc32)no1`, the “% Inhibition” value came out at 3% and the Z score was -0.32.
Consider `CC(C)(O)CN1CCN(C(=O)c2ccccc2-n2cnnn2)CC1`, for which the “% Inhibition” value was found to be 5% and the Z score was -0.69.
Take `Cc1sc(-c2ccno2)cc1S(=O)(=O)NCc1cccs1`: the “% Inhibition” value is reported as -3% and the Z score was 0.28.
The like results for `COc1ccc(S(=O)(=O)C(F)(F)C(F)(F)C(F)(F)F)cc1N` were, in that order, -46% and 5.37.

The record behind these values is ChEMBL document CHEMBL4888484, “Replenishing the malaria drug discovery pipeline: Screening and hit evaluation of the MMV Hit Generation Library 1 (HGL1) against asexual blood stage Plasmodium falciparum ,using a nano luciferase reporter read-out” (2022).
